Among all 310,000 compounds or so, about 2,200 (0.71%) showed an effect of 50% or more. Effects have a minus sign here. Some of the results follow.
What follows are compounds tested against human ether-à-go-go-related gene (hERG) potassium channel (human, UniProt Q12809) (assay: primary screen, population patch clamp on CHO cells stably expressing hERG).
human ether-à-go-go-related gene (hERG) potassium channel, sequence (Q12809 whole entry, looked up): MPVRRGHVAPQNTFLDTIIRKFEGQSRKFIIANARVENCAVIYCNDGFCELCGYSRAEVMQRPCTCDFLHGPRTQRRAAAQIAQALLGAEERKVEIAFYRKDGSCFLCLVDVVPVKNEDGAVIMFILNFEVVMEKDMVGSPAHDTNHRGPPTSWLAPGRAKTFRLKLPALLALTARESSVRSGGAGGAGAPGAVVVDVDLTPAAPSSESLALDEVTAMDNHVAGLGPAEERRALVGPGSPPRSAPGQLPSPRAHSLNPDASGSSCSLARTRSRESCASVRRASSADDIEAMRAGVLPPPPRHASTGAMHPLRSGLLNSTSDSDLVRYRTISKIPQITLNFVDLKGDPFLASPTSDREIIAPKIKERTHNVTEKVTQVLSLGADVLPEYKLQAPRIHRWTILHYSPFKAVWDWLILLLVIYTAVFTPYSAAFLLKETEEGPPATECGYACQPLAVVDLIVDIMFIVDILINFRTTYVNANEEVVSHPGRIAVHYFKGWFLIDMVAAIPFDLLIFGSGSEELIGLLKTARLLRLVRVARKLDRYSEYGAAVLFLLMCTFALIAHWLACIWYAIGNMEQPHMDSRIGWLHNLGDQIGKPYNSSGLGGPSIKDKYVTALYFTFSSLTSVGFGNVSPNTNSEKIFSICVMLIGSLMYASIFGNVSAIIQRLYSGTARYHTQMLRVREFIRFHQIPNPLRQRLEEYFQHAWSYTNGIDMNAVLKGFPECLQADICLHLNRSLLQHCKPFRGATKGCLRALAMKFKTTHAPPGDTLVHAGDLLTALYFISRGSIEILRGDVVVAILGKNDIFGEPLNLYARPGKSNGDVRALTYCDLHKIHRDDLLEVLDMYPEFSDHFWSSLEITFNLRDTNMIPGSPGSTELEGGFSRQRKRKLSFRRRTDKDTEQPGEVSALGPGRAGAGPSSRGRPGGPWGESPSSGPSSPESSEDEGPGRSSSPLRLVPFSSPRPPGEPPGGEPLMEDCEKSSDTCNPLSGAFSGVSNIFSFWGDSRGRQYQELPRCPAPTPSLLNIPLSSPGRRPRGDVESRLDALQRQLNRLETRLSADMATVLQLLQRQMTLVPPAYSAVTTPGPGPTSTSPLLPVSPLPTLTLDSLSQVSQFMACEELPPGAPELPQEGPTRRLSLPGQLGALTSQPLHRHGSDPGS

Compound	hERG current change (%, negative = inhibition) at 1uM [%]
NS(=O)(=O)c1ccc(NC(=S)N2CCN(S(=O)(=O)c3ccc(F)cc3)CC2)cc1	11.9
CCC(C)N1CCN(C(=O)c2cccs2)CC1.O=C(O)C(=O)O (stereo not shown)	3.54
CCOC(=O)c1[nH]c2ccc(OC)cc2c1NC(=S)N1CCN(c2cccc(C)c2C)CC1	10.5
CCOc1ccc(OCCC(=O)NNC(=O)c2nn(C)c(=O)c3ccccc23)cc1	17.1
COCc1[nH]c(=S)[nH]c(=O)c1C	15.8
CCC(=O)Nc1nc2ccc(NC(=O)c3cc(OC)c(OC)c(OC)c3)cc2s1	5.48
O=C(Cn1cnc2ccccc2c1=O)c1ccc(OC(F)F)cc1	-5.57
CC1C(=O)C(C)C(c2ccc3c(c2)OCO3)NC1c1ccc2c(c1)OCO2 (stereo not shown)	11.2
O=C(O)CC(Cn1cnnn1)c1ccccc1 (stereo not shown)	19.9
CC(Oc1ccc2c3c(c(=O)oc2c1)CCCC3)C(=O)NCC1CCC(C(=O)O)CC1 (stereo not shown)	12
COc1cccc(NC(=O)CCN2C(=O)C3CC=CCC3C2=O)c1 (stereo not shown)	-4.15
O=C(CN1C(=O)CCSc2ccccc21)N1CCC2(CC1)OCCO2	15.2
CCOc1cccc(C=Nc2cc(C)cc(C)c2O)c1O	1.07
Cc1ccc(-n2c(Cc3cccn3C)nnc2SCC(=O)NCc2ccco2)cc1	-3.14
CCOc1ccc(NS(=O)(=O)c2cc(C(=O)N3CCCC3)ccc2Cl)cc1	-0.724
NC(=O)c1ccc(-c2c(-c3ccccc3)sc3ccccc23)cc1	11.8
O=C(O)CC/C(=N\Nc1ccc([N+](=O)[O-])cc1S(=O)(=O)N1CCOCC1)c1cccs1	1.11
O=C(O)c1ccc(Cl)c(NC(=O)C2CCCN2S(=O)(=O)c2cccc3nsnc23)c1 (stereo not shown)	6.02
COc1ccc(/C=N\NC(=O)COc2ccccc2Cl)cc1Cn1nc(C)cc1C	10
Cc1ccc(/C=C2/NC(=O)N(Cc3ccccc3F)C2=O)o1	1.57
COc1cccc(/C=N/NC(=O)CN2C(=O)NC3NC(=O)NC32)c1 (stereo not shown)	4.59
CC1CCCN(S(=O)(=O)c2ccc3[nH]c4c(c3c2)CCCC4)C1 (stereo not shown)	7.53

Compound	hERG current change (%, negative = inhibition) at 1uM [%]
COc1ccc(NS(=O)(=O)c2ccc(SC)cc2)cc1	6.13
CC(=O)Nc1ncc(N=Nc2cccc(C(F)(F)F)c2)s1	12.1
CCc1nc2ccccc2n1CCC(=O)O.Cl	5.08
O=C(CN1C(=O)c2ccccc2C1=O)NCCOc1ccccc1	12.6
O=C(CNC(=O)c1ccc(Br)o1)NCc1cccc(Cl)c1	15.4
COc1ccc(CC(=O)NCC2(c3ccc(OC)c(OC)c3)CCCC2)cc1	-9.75
CCc1nnc(NC(=O)CSc2nnc(-c3ccccc3NC(=O)c3ccccc3)o2)s1	5.83
O=C(NCCc1nnc2ccc(N3CCCCCC3)nn12)c1ccccc1	9.6
C[C@@H]1CC[C@@]2(O[C@@H](CCO)C[C@H](O)[C@H]2O)O1	5.8
Nc1nc(-c2ccccc2)cs1	-5.05
COC(=O)c1c(NC(=O)CN2CCC3(O)CCCCC3C2c2ccccc2OC)sc(C)c1C (stereo not shown)	16
CSc1ncccc1C(=O)NC1CCCc2c1cnn2-c1ccc(C)c(C)c1 (stereo not shown)	12
COc1cc(OC)c(OC)cc1CN1CCN(C(=O)CC(C)C)CC1	9.95
CCOCCCNC(=O)c1ccc2c(c1)N=C(CC)c1cc(Br)ccc1S2	10.2
COc1cccc(-c2nnc(SCC(=O)Nc3ccc(OC)c(OC)c3)n2N)c1	15.5
O=C(C1CCCN(Cc2ccccc2Br)C1)N1CCCCC1.O=C(O)C(=O)O (stereo not shown)	-1.5
CCOCCn1ccc2c(OCC(=O)Nc3cc(OC)ccc3OC)cccc2c1=O	7.23
COC(=O)c1ccccc1NC(=O)CCS(=O)(=O)c1ccc(Br)s1	8.6
CCCOc1ccc(C=Nc2ccc(OC)c(S(=O)(=O)N3CCOCC3)c2)c(O)c1	18.1
O=C(OCc1ccc([N+](=O)[O-])cc1)c1ccccn1	9.5
COc1ccccc1N1C(=O)C2C(C(=O)c3ccccc3)=NN(c3ccccc3OC)C2C1=O (stereo not shown)	11.9
O=C(O)CCc1ccc(-c2ccc(F)cc2)n1CCC(=O)O	16.4

Compound	hERG current change (%, negative = inhibition) at 1uM [%]
COc1cc2cc(CCOC(=O)c3ccc(F)cc3)oc(=O)c2cc1OC	11.4
NC(N)=NS(=O)(=O)c1ccc(NC(=S)NC(=O)c2ccccc2)cc1	7.4
O=C(N/C(=C/c1cccs1)C(=O)N1CCOCC1)c1ccco1	9.85
COCCCNC(=O)CNC(=O)c1nn(-c2ccc(OC)cc2OC)c(=O)c2ccccc12	12.4
COc1cccc(NC(=O)Cc2nnc(SCCOc3ccccc3)n2C)c1	3.67
Cc1c(C(Nc2ccccn2)c2ccccc2)c(=O)n(-c2ccccc2)n1C (stereo not shown)	3.6
O=S(=O)(c1ccccc1)N1CCCC1c1nc2ccccc2s1 (stereo not shown)	12.2
CC1Oc2ccccc2C=C1/C=N/NC(=O)c1ccncc1 (stereo not shown)	9.22
CCCCSc1nnc2n(CCc3ccccc3)c(=O)c3c4c(sc3n12)COC(C)(C)C4	12.9
CC(=O)NC1C(Oc2ccc(C=O)cc2)OC(COC(C)=O)C(OC(C)=O)C1OC(C)=O (stereo not shown)	21.8
CCOC(=O)c1sc(NC(=S)NC(=O)C23CC4CC(CC(C4)C2)C3)cc1C	17.5
CC(=O)Nc1ccc(-c2csc(-c3cccnc3)n2)cc1	2.61
Cc1cc(S(=O)(=O)NCc2ccccc2)ccc1OCC(=O)N1CCOCC1	-1.59
Cc1cccc(C)c1NC(=O)CN(C)C(=O)[C@H](C)NC(=O)c1ccco1	5.58
Cc1oc(-c2ccccc2)nc1CS(=O)CC(=O)N1CCc2ccccc2C1 (stereo not shown)	-1.69
O=C(Cc1cccs1)N1CCC(c2nc3c(nnn3Cc3ccccc3Cl)c(=O)[nH]2)CC1	0.73
CC(C)CCSc1nc2ccccc2[nH]1	7.31
N#Cc1ccc(-c2ccc(OCC3CNC(=O)O3)cc2)cc1 (stereo not shown)	8.74
O=C(O)c1ccc(N/N=C/c2cn(-c3ccccc3)nc2-c2cccs2)cc1	1.74
Cc1nc2ccccn2c1C(=O)c1ccccc1	-11.4
O=S(=O)(Nc1ccncc1Cl)c1ccc2ccccc2c1	9.22
COc1ccc([N+](=O)[O-])c2c(=O)ccoc12	-7.49

Compound	hERG current change (%, negative = inhibition) at 1uM [%]
CCN(CC)C(=O)CN(C#N)c1nc(Cl)nc(N(C)C)n1	10.2
CCN(c1ccccc1C)S(=O)(=O)c1nnc(NC(=O)c2ccco2)s1	12.9
COc1ccc(N/C(C)=C2/C(=O)C(=O)N(CCO)C2c2ccc(Br)cc2)cc1 (stereo not shown)	-11.6
Oc1ccc(NCc2ccccc2OCc2ccccc2)cc1	6.82
CCC(=O)n1nc(-c2ccccc2)nc1NCc1ccccc1	8.81
CN(C)CCN1C(=O)C(=O)/C(=C(/O)c2ccc(S(=O)(=O)N3CCOCC3)cc2)C1c1ccc(F)cc1 (stereo not shown)	-4.52
CCN(CC)c1ccc(C=Nc2cc(C)ccc2C)c(O)c1	11
Nc1nc(SCC(=O)Nc2ccc([N+](=O)[O-])cc2)[nH]c(=O)c1NC(=O)c1ccc(Br)cc1	12.9
COc1ccc(-c2cc(C(=O)Nc3cccc(O)c3)no2)cc1	13.3
CCCCCN1CC(=O)N2[C@@H](Cc3c([nH]c4ccccc34)C2(C)C)C1=O	21.1
CC1Cc2ccccc2N1S(=O)(=O)c1cccc(C(=O)NCCCn2ccnc2)c1 (stereo not shown)	-15.5
Cc1ccc(OCCCN2CCCC2)c(C)c1.O=C(O)C(=O)O	-11.8
O=C(Nc1ccc(CN2CCOCC2)cc1)c1ccc(-c2cccc([N+](=O)[O-])c2)o1	9.02
CCOC(=O)C1CCN(C(=O)COc2ccc([N+](=O)[O-])cc2)CC1	-25
COC(=O)c1cccc(NC(=O)NC(=O)c2ccc(Cl)cc2)c1	11.8
Cc1ccc(C(C)NC(=O)c2c(-c3ccccc3)noc2C)cc1C (stereo not shown)	12.1
CC(C)(C)c1nc2c(Br)cc(Br)cc2c(=O)o1	23.5
Cc1c(NC(=O)CC2NC(=O)NC2=O)c(=O)n(-c2ccccc2)n1C (stereo not shown)	5.95
Cc1ccc(S(=O)(=O)N2CCCC2C(=O)NCc2ccncc2)cc1 (stereo not shown)	11.6
O=C(N/N=C/c1cccnc1)c1cccc(S(=O)(=O)Nc2cccc(Cl)c2)c1	-0.757
COC(=O)c1ccc(CNC(=O)COC(=O)CCC2CCCC2)cc1	8.27
CCOC(=O)N1CCC(N2Cc3cccc(C(=O)O)c3C2=O)CC1	-2.57
